# Data from the supplement of paper PMC8728848.
# The other results are listed elsewhere or left out.
# B1: MpAFP NterminalRI GFP (Marinomonas primoryensis) (protein)
# chain: MSDNQFPFATLGNAIGFITKLDGSVTVQSIDGQERVLKLGDPIFFGETVLTGGSGSVTIAFVDGTDVVIGGDSIVEMTDEIYNTGDNEDLVADSSSEIDALQNAILAGDDPTLIQDAPAAGNTLADQQRVDVSIERNDNSAQAGFGVDTQSSLPTYGYDTDNGNGGQATEREYSAPSLSRTLNQSPLLEHHHHHH
# What was measured:
# Test in all cases: glycan array binding signal (z-score within array); higher = stronger binding
# Conditions in all cases: glycan notation: IUPAC condensed, linker removed
# [1] = target: GlcNAc(b1-3)Gal(b1-4)GlcNAc(b1-3)Gal(b1-4)GlcNAc(b1-2)Man(a1-3)[GlcNAc(b1-3)Gal(b1-4)GlcNAc(b1-3)Gal(b1-4)GlcNAc(b1-2)Man(a1-6)]Man(b1-4)GlcNAc(b1-4)GlcNAc
# How it was run: (§1)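 Glycan array data were curated from 3228 arrays in the Consortium for Functional Glycomics database and kept only where the protein sequence was available. Glycan names were converted to IUPAC-condensed notation, and columns mapping to the same glycan were averaged. The binding signal is a within-array Z-score, averaged across arrays of the same protein sequence at different concentrations or buffers and across linkers. Negative Z-scores can be read as non-binding.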
# [2] = target: GlcNAc(b1-3)Gal(b1-4)GlcNAc(b1-3)Gal(b1-4)GlcNAc(b1-2)Man(a1-3)[GlcNAc(b1-3)Gal(b1-4)GlcNAc(b1-3)Gal(b1-4)GlcNAc(b1-2)Man(a1-6)]Man(b1-4)GlcNAc(b1-4)[Fuc(a1-6)]GlcNAc
# How it was run: as §1
# [3] = target: GlcNAc(b1-3)Gal(b1-4)GlcNAc(b1-3)Gal(b1-4)GlcNAc(b1-2)[GlcNAc(b1-3)Gal(b1-4)GlcNAc(b1-3)Gal(b1-4)GlcNAc(b1-6)]Man(a1-6)[GlcNAc(b1-3)Gal(b1-4)GlcNAc(b1-3)Gal(b1-4)GlcNAc(b1-2)Man(a1-3)]Man(b1-4)GlcNAc(b1-4)[Fuc(a1-6)]GlcNAc
# How it was run: as §1
# [4] = target: GlcNAc(b1-3)Gal(b1-4)GlcNAc(b1-3)Gal(b1-4)GlcNAc(b1-3)Gal(b1-4)GlcNAc(b1-2)Man(a1-3)[GlcNAc(b1-3)Gal(b1-4)GlcNAc(b1-3)Gal(b1-4)GlcNAc(b1-3)Gal(b1-4)GlcNAc(b1-2)Man(a1-6)]Man(b1-4)GlcNAc(b1-4)GlcNAc
# How it was run: as §1
# [5] = target: GlcNAc(b1-3)Gal(b1-4)GlcNAc(b1-3)Gal(b1-4)GlcNAc(b1-3)Gal(b1-4)GlcNAc(b1-2)Man(a1-3)[GlcNAc(b1-3)Gal(b1-4)GlcNAc(b1-3)Gal(b1-4)GlcNAc(b1-3)Gal(b1-4)GlcNAc(b1-2)Man(a1-6)]Man(b1-4)GlcNAc(b1-4)[Fuc(a1-6)]GlcNAc
# How it was run: as §1
# [6] = target: GlcNAc(b1-3)Gal(b1-4)GlcNAc(b1-3)Gal(b1-4)GlcNAc(b1-3)Gal(b1-4)GlcNAc(b1-2)[GlcNAc(b1-3)Gal(b1-4)GlcNAc(b1-3)Gal(b1-4)GlcNAc(b1-3)Gal(b1-4)GlcNAc(b1-6)]Man(a1-6)[GlcNAc(b1-3)Gal(b1-4)GlcNAc(b1-3)Gal(b1-4)GlcNAc(b1-3)Gal(b1-4)GlcNAc(b1-2)Man(a1-3)]Man(b1-4)GlcNAc(b1-4)[Fuc(a1-6)]GlcNAc
# How it was run: as §1
# [7] = target: GlcNAc(b1-3)Gal(b1-4)GlcNAc(b1-3)Gal(b1-4)GlcNAc(b1-3)Gal(b1-4)GlcNAc(b1-3)Gal(b1-4)GlcNAc(b1-2)Man(a1-3)[GlcNAc(b1-3)Gal(b1-4)GlcNAc(b1-3)Gal(b1-4)GlcNAc(b1-3)Gal(b1-4)GlcNAc(b1-3)Gal(b1-4)GlcNAc(b1-2)Man(a1-6)]Man(b1-4)GlcNAc(b1-4)GlcNAc
# How it was run: as §1
# [8] = target: GlcNAc(b1-3)Gal(b1-4)GlcNAc(b1-3)Gal(b1-4)GlcNAc(b1-3)Gal(b1-4)GlcNAc(b1-3)Gal(b1-4)GlcNAc(b1-2)Man(a1-3)[GlcNAc(b1-3)Gal(b1-4)GlcNAc(b1-3)Gal(b1-4)GlcNAc(b1-3)Gal(b1-4)GlcNAc(b1-3)Gal(b1-4)GlcNAc(b1-2)Man(a1-6)]Man(b1-4)GlcNAc(b1-4)[Fuc(a1-6)]GlcNAc
# How it was run: as §1
# [9] = target: GlcNAc(b1-3)Gal(b1-4)GlcNAc(b1-3)Gal(b1-4)GlcNAc(b1-3)Gal(b1-4)GlcNAc(b1-3)Gal(b1-4)GlcNAc(b1-2)[GlcNAc(b1-3)Gal(b1-4)GlcNAc(b1-3)Gal(b1-4)GlcNAc(b1-3)Gal(b1-4)GlcNAc(b1-3)Gal(b1-4)GlcNAc(b1-6)]Man(a1-6)[GlcNAc(b1-3)Gal(b1-4)GlcNAc(b1-3)Gal(b1-4)GlcNAc(b1-3)Gal(b1-4)GlcNAc(b1-3)Gal(b1-4)GlcNAc(b1-2)Man(a1-3)]Man(b1-4)GlcNAc(b1-4)[Fuc(a1-6)]GlcNAc
# How it was run: as §1
# [10] = target: GlcNAc(b1-3)Gal(b1-4)GlcNAc(b1-3)Gal(b1-4)GlcNAc(b1-3)GalNAc
# How it was run: as §1
# [11] = target: GlcNAc(b1-3)Gal(b1-4)GlcNAc(b1-3)GalNAc
# How it was run: as §1
# [12] = target: GlcNAc(b1-3)Gal(b1-4)GlcNAc(b1-3)[GlcNAc(b1-3)Gal(b1-4)GlcNAc(b1-3)]GalNAc
# How it was run: as §1
# [13] = target: GlcNAc(b1-3)Gal(b1-4)GlcNAc(b1-6)[Gal(b1-3)]GalNAc
# How it was run: as §1
# [14] = target: GlcNAc(b1-3)Gal(b1-4)GlcNAc(b1-6)[GlcNAc(b1-3)Gal(b1-3)]GalNAc
# How it was run: as §1
# [15] = target: GlcNAc(b1-3)Gal(b1-4)GlcNAc(b1-6)[GlcNAc(b1-3)]Gal(b1-4)GlcNAc
# How it was run: as §1
# GlcNAc(b1-3)GalNAc = target: GlcNAc(b1-3)GalNAc
# How it was run: as §1
# GlcNAc(b1-3)Man = target: GlcNAc(b1-3)Man
# How it was run: as §1
# [16] = target: GlcNAc(b1-3)[GlcNAc(b1-4)][GlcNAc(b1-6)]GlcNAc
# How it was run: as §1
# [17] = target: GlcNAc(b1-3)[GlcNAc(b1-6)]Gal(b1-4)GlcNAc
# How it was run: as §1
# [18] = target: GlcNAc(b1-3)[GlcNAc(b1-6)]GalNAc
# How it was run: as §1
# [19] = target: GlcNAc(b1-4)Gal(b1-4)GlcNAc
# How it was run: as §1
# GlcNAc(b1-4)GlcNAc = target: GlcNAc(b1-4)GlcNAc
# How it was run: as §1
# [20] = target: GlcNAc(b1-4)GlcNAc(b1-4)GlcNAc
# How it was run: as §1
binder,measurement,setting,value
B1,glycan array binding signal (z-score),[1],0.803
same,glycan array binding signal (z-score),[2],1.56
same,glycan array binding signal (z-score),[3],1.26
same,glycan array binding signal (z-score),[4],6.83
same,glycan array binding signal (z-score),[5],2.05
same,glycan array binding signal (z-score),[6],2.6
same,glycan array binding signal (z-score),[7],0.255
same,glycan array binding signal (z-score),[8],-0.015
same,glycan array binding signal (z-score),[9],0.32
same,glycan array binding signal (z-score),[10],-0.344
same,glycan array binding signal (z-score),[11],-0.426
same,glycan array binding signal (z-score),[12],-0.194
same,glycan array binding signal (z-score),[13],-0.33
same,glycan array binding signal (z-score),[14],-0.192
same,glycan array binding signal (z-score),[15],-0.39
same,glycan array binding signal (z-score),GlcNAc(b1-3)GalNAc,-0.21
same,glycan array binding signal (z-score),GlcNAc(b1-3)Man,2.02
same,glycan array binding signal (z-score),[16],-0.51
same,glycan array binding signal (z-score),[17],-0.441
same,glycan array binding signal (z-score),[18],-0.324
same,glycan array binding signal (z-score),[19],1.43
same,glycan array binding signal (z-score),GlcNAc(b1-4)GlcNAc,4.84
same,glycan array binding signal (z-score),[20],-0.497
